Reference: the supplement of paper PMC8728848
Some of the results follow.

Columns and labels:
Assay in all cases: glycan array binding signal (z-score within array); higher = stronger binding
Conditions in all cases: glycan notation: IUPAC condensed, linker removed
[1] = target: GlcNAc(b1-4)GlcNAc(b1-4)GlcNAc(b1-4)GlcNAc(b1-4)GlcNAc
How it was run: (§1)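 The binding signal is a Z-score computed within each array and averaged over linkers. Arrays of the same protein sequence at different concentrations or buffers were also averaged together. Data originate from 3228 arrays in the Consortium for Functional Glycomics database, kept only where the protein sequence was available.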

[2] = target: GlcNAc(b1-4)GlcNAc(b1-4)GlcNAc(b1-4)GlcNAc(b1-4)GlcNAc(b1-4)GlcNAc
How it was run: as §1

[3] = target: GlcNAc(b1-4)[GlcNAc(b1-6)]GalNAc
How it was run: as §1

[4] = target: GlcNAc(b1-6)Gal(b1-4)GlcNAc
How it was run: as §1

GlcNAc(b1-6)GalNAc = target: GlcNAc(b1-6)GalNAc
How it was run: as §1

Kdn(a2-3)Gal(b1-3)GlcNAc = target: Kdn(a2-3)Gal(b1-3)GlcNAc
How it was run: as §1

Kdn(a2-3)Gal(b1-4)GlcNAc = target: Kdn(a2-3)Gal(b1-4)GlcNAc
How it was run: as §1

[5] = target: Man(a1-2)Man(a1-2)Man(a1-3)Man
How it was run: as §1

[6] = target: Man(a1-2)Man(a1-2)Man(a1-6)[Man(a1-3)]Man
How it was run: as §1

Man(a1-2)Man(a1-3)Man = target: Man(a1-2)Man(a1-3)Man
How it was run: as §1

[7] = target: Man(a1-2)Man(a1-3)[Man(a1-2)Man(a1-6)]Man
How it was run: as §1

[8] = target: Man(a1-2)Man(a1-3)[Man(a1-2)Man(a1-6)]Man(a1-6)[Man(a1-2)Man(a1-2)Man(a1-3)]Man(b1-4)GlcNAc(b1-4)GlcNAc
How it was run: as §1

[9] = target: Man(a1-2)Man(a1-3)[Man(a1-6)]Man(a1-6)[Man(a1-2)Man(a1-3)]Man(b1-4)GlcNAc(b1-4)GlcNAc
How it was run: as §1

[10] = target: Man(a1-2)Man(a1-6)[Man(a1-3)]Man(a1-6)[Man(a1-2)Man(a1-2)Man(a1-3)]Man(b1-4)GlcNAc(b1-4)GlcNAc
How it was run: as §1

Man(a1-3)[Man(a1-6)]Man = target: Man(a1-3)[Man(a1-6)]Man
How it was run: as §1

[11] = target: Man(a1-3)[Man(a1-6)]Man(a1-6)[Man(a1-2)Man(a1-3)]Man(b1-4)GlcNAc(b1-4)GlcNAc
How it was run: as §1

[12] = target: Man(a1-3)[Man(a1-6)]Man(a1-6)[Man(a1-3)]Man(b1-4)GlcNAc(b1-4)GlcNAc
How it was run: as §1

[13] = target: Man(a1-3)[Man(a1-6)]Man(b1-4)GlcNAc(b1-4)GlcNAc
How it was run: as §1

Man(b1-4)GlcNAc = target: Man(b1-4)GlcNAc
How it was run: as §1

Neu5Ac(a2-3)Gal = target: Neu5Ac(a2-3)Gal
How it was run: as §1

[14] = target: Neu5Ac(a2-3)Gal(b1-3)GalNAc
How it was run: as §1

[15] = target: Neu5Ac(a2-3)Gal(b1-3)GalNAc(b1-3)Gal(a1-4)Gal(b1-4)Glc
How it was run: as §1

[16] = target: Neu5Ac(a2-3)Gal(b1-3)GalNAc(b1-3)Gal(b1-4)GlcNAc
How it was run: as §1

[17] = target: Neu5Ac(a2-3)Gal(b1-3)GalNAc(b1-4)[Neu5Ac(a2-3)]Gal(b1-4)Glc
How it was run: as §1

[18] = target: Neu5Ac(a2-3)Gal(b1-3)GalNAc6S
How it was run: as §1

[19] = target: Neu5Ac(a2-3)Gal(b1-3)GlcNAc
How it was run: as §1

[20] = target: Neu5Ac(a2-3)Gal(b1-3)GlcNAc6S
How it was run: as §1

[21] = target: Neu5Ac(a2-3)Gal(b1-3)[Fuc(a1-4)]GlcNAc
How it was run: as §1

[22] = target: Neu5Ac(a2-3)Gal(b1-3)[Fuc(a1-4)]GlcNAc(b1-3)Gal(b1-4)[Fuc(a1-3)]GlcNAc
How it was run: as §1

[23] = target: Neu5Ac(a2-3)Gal(b1-3)[Neu5Ac(a2-3)Gal(b1-4)]GlcNAc
How it was run: as §1

[24] = target: Neu5Ac(a2-3)Gal(b1-3)[Neu5Ac(a2-6)]GalNAc
How it was run: as §1

Neu5Ac(a2-3)Gal(b1-4)Glc = target: Neu5Ac(a2-3)Gal(b1-4)Glc
How it was run: as §1

[25] = target: Neu5Ac(a2-3)Gal(b1-4)GlcNAc
How it was run: as §1

[26] = target: Neu5Ac(a2-3)Gal(b1-4)GlcNAc(b1-3)Gal(b1-4)GlcNAc
How it was run: as §1

[27] = target: Neu5Ac(a2-3)Gal(b1-4)GlcNAc(b1-3)Gal(b1-4)GlcNAc(b1-3)Gal(b1-4)GlcNAc
How it was run: as §1

[28] = target: Neu5Ac(a2-3)Gal(b1-4)GlcNAc(b1-3)Gal(b1-4)[Fuc(a1-3)]GlcNAc
How it was run: as §1

[29] = target: Neu5Ac(a2-3)Gal(b1-4)GlcNAc6S
How it was run: as §1

B1: CLEC7A (Homo sapiens), Q9BXN2 (protein)
chain: MEYHPDLENLDEDGYTQLHFDSQSNTRIAVVSEKGSCAASPPWRLIAVILGILCLVILVIAVVLGTMAIWRSNSGSNTLENGYFLSRNKENHSQPTQSSLEDSVTPTKAVKTTGVLSSPCPPNWIIYEKSCYLFSMSLNSWDGSKRQCWQLGSNLLKIDSSNELGFIVKQVSSQPDNSFWIGLSRPQTEVPWLWEDGSTFSSNLFQIRTTATQENPSPNCVWIHVSVIYDQLCSVPSYSICEKKFSM
glycan array binding signal (z-score) [1]: -0.613 | glycan array binding signal (z-score) [2]: -0.552 | glycan array binding signal (z-score) [3]: -0.414 | glycan array binding signal (z-score) [4]: -0.026 | glycan array binding signal (z-score) (GlcNAc(b1-6)GalNAc): -0.113 | glycan array binding signal (z-score) (Kdn(a2-3)Gal(b1-3)GlcNAc): 0.613 | glycan array binding signal (z-score) (Kdn(a2-3)Gal(b1-4)GlcNAc): 0.64 | glycan array binding signal (z-score) [5]: -0.223 | glycan array binding signal (z-score) [6]: -0.555 | glycan array binding signal (z-score) (Man(a1-2)Man(a1-3)Man): -0.75 | glycan array binding signal (z-score) [7]: -0.654 | glycan array binding signal (z-score) [8]: -0.599 | glycan array binding signal (z-score) [9]: -0.061 | glycan array binding signal (z-score) [10]: -0.301 | glycan array binding signal (z-score) (Man(a1-3)[Man(a1-6)]Man): -0.301 | glycan array binding signal (z-score) [11]: 0.549 | glycan array binding signal (z-score) [12]: 0.04 | glycan array binding signal (z-score) [13]: -0.35 | glycan array binding signal (z-score) (Man(b1-4)GlcNAc): -0.755 | glycan array binding signal (z-score) (Neu5Ac(a2-3)Gal): 0.88 | glycan array binding signal (z-score) [14]: -0.336 | glycan array binding signal (z-score) [15]: -0.398 | glycan array binding signal (z-score) [16]: -0.67 | glycan array binding signal (z-score) [17]: -0.365 | glycan array binding signal (z-score) [18]: -0.367 | glycan array binding signal (z-score) [19]: -0.905 | glycan array binding signal (z-score) [20]: 1.15 | glycan array binding signal (z-score) [21]: -0.793 | glycan array binding signal (z-score) [22]: 1.34 | glycan array binding signal (z-score) [23]: -0.393 | glycan array binding signal (z-score) [24]: -0.477 | glycan array binding signal (z-score) (Neu5Ac(a2-3)Gal(b1-4)Glc): -0.855 | glycan array binding signal (z-score) [25]: -0.603 | glycan array binding signal (z-score) [26]: -0.189 | glycan array binding signal (z-score) [27]: -0.474 | glycan array binding signal (z-score) [28]: -0.21 | glycan array binding signal (z-score) [29]: -0.22
